# About 6,400 (1.6%) of roughly 410,000 compounds were called active. The shares of active, inactive and inconclusive entries below differ from those in the screen. Calls come from the whole dose curve; as a rule, active = well fitted inhibition curve with a large enough effect; inconclusive = small, poorly fitted or top-dose-only effect; inactive = no such curve, though single readings can be large or run the other way. No potency is given beside an inconclusive call; the fits are too rough.
# Target: Glucagon-like peptide 1 receptor (Homo sapiens) (UniProt P43220)
# Sequence of UniProt P43220 (P43220 whole entry, looked up): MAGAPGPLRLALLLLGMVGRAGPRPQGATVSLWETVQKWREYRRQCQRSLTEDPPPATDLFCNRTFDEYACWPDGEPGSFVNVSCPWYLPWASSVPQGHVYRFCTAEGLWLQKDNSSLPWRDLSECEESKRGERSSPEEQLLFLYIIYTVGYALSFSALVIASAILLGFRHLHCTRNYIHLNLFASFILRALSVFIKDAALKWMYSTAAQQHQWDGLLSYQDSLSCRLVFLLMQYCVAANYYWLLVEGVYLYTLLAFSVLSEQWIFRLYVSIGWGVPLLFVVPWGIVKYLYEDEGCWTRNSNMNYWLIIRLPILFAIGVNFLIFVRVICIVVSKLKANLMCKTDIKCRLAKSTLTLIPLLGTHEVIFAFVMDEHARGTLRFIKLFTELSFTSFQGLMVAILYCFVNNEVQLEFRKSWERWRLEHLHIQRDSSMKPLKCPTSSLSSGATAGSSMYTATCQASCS
# Experiment: qHTS of GLP-1 Receptor Inverse Agonists (Inhibition Mode); note: nearly all actives have a fitted effect of over 55% in size
# Conditions: HEK293 GLP-1R CRE-luciferase, luminescence, 24 h, GLP-1R form is constitutively active; activity change, negative = inhibition: at 38.3 µM (top of the series) unless noted
# Procedure, shortened: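 HEK293 cells stably co-expressing constitutively active GLP-1R and a cAMP-responsive luciferase reporter were seeded in DMEM with 10% Nu serum, given compounds after 12 h, and incubated 24 h at 37 deg C. Luminescence was then read.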
# % is set by controls: 0 for no effect and ±100 for the full control effect; potency is the fitted concentration of half-maximal effect; tags give direction and shape of the fitted curve.
SMILES,"activity change, negative = inhibition",Potency
C[C@@H]1CCCN1[C@H]1CS(=O)(=O)N[C@@H]1COCc1ccccc1,inactive: 17.4%,
Oc1ccccc1N1CCN(c2ccc3ccccc3n2)CC1,,"inconclusive [inhibitor, single point]"
O=C1NC[C@@H](Cc2cccc3ccccc23)N(CCc2cc(C(F)(F)F)cc(C(F)(F)F)c2)C1=O,,"inconclusive [inhibitor, partial curve, poor fit]"
COc1ccc(Cl)cc1NC(=O)CN(C)C(=O)c1cn(-c2ccccc2)nc1-c1cccnc1,,"inconclusive [inhibitor, partial curve, poor fit]"
N#Cc1cc(-c2ccccc2)nc(NN)n1,,"inconclusive [inhibitor, partial curve]"
S=C(NCc1ccc(Cl)cc1)Nc1ccncc1,,"inconclusive [inhibitor, partial curve, poor fit]"
CCN(CC)c1nn2c(=O)c(C(=O)NCc3ccccc3Br)cnc2s1,inactive: 8.5%,
Cn1ccnc1C(O)(c1nnc(-c2ccccc2)o1)C(F)(F)F (centres undefined),inactive: -9.97%,
Cc1oc(-c2ccccc2F)nc1CS(=O)(=O)CC(=O)NCCCN(C)C1CCCCC1,,"inconclusive [inhibitor, single point]"
Cc1ccc(C(C)C)c(OCCCN2CC(C)OC(C)C2)c1 (centres undefined),,"inconclusive [inhibitor, full curve, poor fit]"
COc1cccc(NC(=O)CN2C(=O)CSc3ccc(S(=O)(=O)N4CCOCC4)cc32)c1,inactive: -9.19%,
Cc1cc(Nc2ccccc2)c2c([N+](=O)[O-])cc(C)c(C)c2n1,inactive: 1.14%,
COc1cccc2c1C(=O)c1c(O)c3c(c(O)c1C2=O)CC(O)(C(C)=O)CC3OC1CC(N(C)C)C(O)C(C)O1 (centres undefined),,"inconclusive [inhibitor, full curve, poor fit]"
CCN(c1cc(C)cc(C)c1)S(=O)(=O)c1nnc(NC(=O)c2ccccc2C)s1,,"inconclusive [inhibitor, partial curve, poor fit]"
Cc1ccc(N(CC(=O)N2CCN(c3cccc(C)c3C)CC2)S(=O)(=O)c2c(C)nn(C)c2C)cc1,,"inconclusive [inhibitor, partial curve, poor fit]"
Cc1ccc(S(=O)(=O)N(C)c2ccc(OCC(=O)OCc3cccc(Br)c3)cc2)cc1,inactive: -15%,
CC(=O)Nc1c(C)nn(-c2ccccc2)c1N1CCC(C(=O)NCc2cccc(F)c2)CC1,inactive: 18%,
Cc1cc(C)c(S(=O)(=O)N2CCOC2CNC(=O)C(=O)NCCc2c[nH]c3ccccc23)c(C)c1 (centres undefined),,"inconclusive [inhibitor, single point]"
COCCN(C(=S)Nc1cc(C)cc(C)c1)C(C)c1ccco1 (centres undefined),,"inconclusive [inhibitor, single point]"
N#CC1=C(N)C(C#N)(C#N)C(c2cccnc2)C2CC(c3ccccc3)CC=C12 (centres undefined),,"inconclusive [inhibitor, full curve, poor fit]"
Nc1ccc(-c2nc3ccc(N)cc3s2)cc1,,"inconclusive [inhibitor, single point]"
O=C(Cn1c(NCCCO)nc2ccccc21)c1ccc(Br)cc1,,"inconclusive [inhibitor, partial curve, poor fit]"

SMILES,"activity change, negative = inhibition",Potency
CC(=O)Nc1ccc(CNc2nc3cc(-c4ccccc4C)sc3c(=O)n2C)cc1,,"inconclusive [inhibitor, single point]"
COc1ccc(C(=O)NCc2ccc(N3CCN(C)CC3)cc2)cc1,inconclusive: -37.5% [inhibitor],
CCOc1ccc(NC(=O)C2CCC(CNS(=O)(=O)c3ccc4c(c3)CCCC(=O)N4)CC2)cc1 (centres undefined),inactive: 7.87%,
CCCc1nn(C)c(C(=O)Nc2ccc(C(C)(C)C)cc2)c1Cl,,"inconclusive [inhibitor, single point]"
COc1ccc(N2CCN(Cc3cc4c(cc3Br)OCCO4)CC2)cc1,,"inconclusive [inhibitor, single point]"
CC(C)OC(=O)C1CC(C)(O)C(=O)C(C(=O)OC(C)C)C1c1ccc([N+](=O)[O-])cc1 (centres undefined),,"inconclusive [inhibitor, single point]"
O=C(c1cc(C2CC2)nn1-c1ccccc1)N1CCN(c2ccc(O)cc2)CC1,,"inconclusive [inhibitor, partial curve, poor fit]"
COc1cc(-c2coc3c(C(=O)NCc4ccc(C(F)(F)F)cc4)cccc23)ccc1O,,"inconclusive [inhibitor, single point]"
Cn1cc(-c2nc3ccccc3[nH]2)c2ccccc21,,"inconclusive [inhibitor, single point]"
C/C(=N\Nc1ccccc1)c1cccc(N)c1,,"inconclusive [inhibitor, single point]"
CCC1CCCCN1C(=O)Cn1c(=O)n(-c2ccc(Cl)c(Cl)c2)c(=O)c2c(C)c(C(=O)N(C)C)sc21 (centres undefined),inactive: 0.667%,
CCN(CC(=O)Nc1ccc(OC)cc1)C(=O)c1ccc2[nH]c3c(c2c1)CC(C)CC3 (centres undefined),,"inconclusive [inhibitor, single point]"
CNC(=S)c1cc(C(C)(C)C)c(O)c(C(C)(C)C)c1,,"inconclusive [inhibitor, partial curve, poor fit]"
CN(C)CC#CCC(O)(c1ccccc1)C1CCCCC1 (centres undefined),,"inconclusive [inhibitor, partial curve, poor fit]"
CCCCOc1c(Br)cc(/C=N/O)cc1OCC,,"inconclusive [inhibitor, single point]"
COCCNC(=S)N/N=C(\C)c1cccc([N+](=O)[O-])c1,,"inconclusive [inhibitor, single point]"
NC1=CC(=O)C(=O)c2cccnc21,,"inconclusive [inhibitor, single point]"
Brc1c(CSc2nc3ccccc3o2)nc2ncccn12,inactive: 47.5%,
CCCCCCCNC(=O)C1(CC2CC(c3ccccc3)=NO2)CCN(C(=O)OC(C)(C)C)CC1 (centres undefined),,"inconclusive [inhibitor, single point]"
CCC1CN(C(=O)N2CCC(C(=O)NCCC3=CCCCC3)CC2)c2ccccc2O1 (centres undefined),inactive: 7.35%,
Fc1cccc(Cl)c1CSc1nnc(COc2cccc3cccnc23)o1,,"inconclusive [inhibitor, single point]"
CCOC(=O)C1(CCOC)CCN(Cc2ccccc2-c2ccco2)CC1,,"inconclusive [inhibitor, single point]"

SMILES,"activity change, negative = inhibition",Potency
Cc1cc(C)n(-c2nc3ccccc3nc2N2CCN(S(=O)(=O)c3cccc(C#N)c3)CC2)n1,,"inconclusive [inhibitor, single point]"
Cc1ccc(N2CCN(C(C(=O)Nc3c(C)cccc3C)c3ccccc3OC(F)(F)F)CC2)cc1 (centres undefined),,"inconclusive [inhibitor, partial curve]"
CCOc1ccc(C(=O)NC(C(=O)N2CCC2)C(C)C)cc1 (centres undefined),inactive: 15.7%,
CN(C(=O)CSc1nc(-c2ccccc2)c(-c2ccccc2)o1)C1CCS(=O)(=O)C1 (centres undefined),,"inconclusive [inhibitor, partial curve, poor fit]"
COc1cccc(-c2ccc3c(c2)N(Cc2ccc(F)cc2)C(=O)C(C)S3)c1 (centres undefined),,"inconclusive [inhibitor, single point]"
Cc1cc(C)nc(SCC(=O)Nc2ccc(S(=O)(=O)Nc3ncccn3)cc2)n1,inactive: 6.81%,
Cc1ccc(C(C)(C)C)cc1S(=O)(=O)Nc1cccc(C(=O)N2CCN(c3ccccn3)CC2)c1,,"inconclusive [inhibitor, partial curve, poor fit]"
CC(C)c1ccc(C(=O)N2CCCC(c3cc(C(=O)Nc4ccccc4Cl)no3)C2)cc1 (centres undefined),inactive: 7.38%,
CN1C(=O)c2ccccc2Sc2ccc(NC(=O)N3CCN(c4cccc(Cl)c4)CC3)cc21,,"inconclusive [inhibitor, single point]"
CCC1CCCCN1S(=O)(=O)c1ccc(C(=O)Nc2nnc(-c3cccs3)o2)cc1 (centres undefined),,"inconclusive [inhibitor, partial curve, poor fit]"
COCC(=O)Nc1nc2ccccc2s1,inactive: 9.36%,
CC(=O)c1ccc(-c2[nH]c3ccccc3c2CCN2C(=O)c3ccccc3C2=O)cc1,,"inconclusive [inhibitor, single point]"
CC(=O)N1CC2(CC(c3ccc(Cl)cc3Cl)=NO2)CN1c1cccc(Cl)c1 (centres undefined),,"inconclusive [inhibitor, single point]"
Cc1ccc(Cl)cc1N1CCN(C(=O)c2cn(C)c(=O)c3c2c2ccccc2n3C)CC1,inactive: 1.87%,
Clc1ccc(CNc2ncnc3onc(-c4ccc(Cl)cc4)c23)cc1,,"inconclusive [inhibitor, single point]"
O=C(NC1CCCCCCC1)c1ccccc1O,,"inconclusive [inhibitor, single point]"
CC1Cc2ccccc2N1CC(=O)NC(c1ccccc1)c1ccccc1 (centres undefined),,"inconclusive [inhibitor, partial curve, poor fit]"
CN(CC(=O)Nc1ccc(F)cc1)C(=O)c1cccc(NS(=O)(=O)c2ccccc2)c1,,"inconclusive [inhibitor, single point]"
CCc1cccc(C)c1NC(=O)c1cc(S(=O)(=O)N2CCN(c3ccccc3)CC2)ccc1F,,"inconclusive [inhibitor, single point]"
COc1ccc2c(c1)CC(C(=O)Nc1cc(OC)c(OC)c(OC)c1)CO2 (centres undefined),inactive: -8.25%,

# Reference: PubChem BioAssay AID624417 (National Center for Advancing Translational Sciences (NCATS), 2012)
